According to PubChem BioAssay AID1963576 (National Center for Advancing Translational Sciences (NCATS), 2024):
The whole screen tested about 46,000 compounds, of which about 60 (0.1%) were called active. Roughly 3% stayed inconclusive and do not appear here. The call rests on the fitted dose curve; in most records, active means well fitted inhibition curve with a large enough effect; inconclusive means small, poorly fitted or top-dose-only effect; inactive means no such curve, though single readings can be large or run the other way. This is one part of the list.

Assay: Primary qHTS assay for Inhibitors of ovarian cancer metastasis using an organotypic tumor microenvironment (TME) model. Further: nearly all actives have a fitted effect of over 65% in size.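 On activity change, negative = inhibition: plate controls were DMSO wells for no effect and tomatine positive control wells for full effect.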
Settings: SKOV3ip1-GFP adhesion/invasion on 3D omental model, fluorescence; series mostly up to 45.8 µM; activity change, negative = inhibition: at the top concentration
In short: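 Adhesion/invasion was scored as fixed GFP-labeled SKOV3ip1 cell counts (488/509 nm), normalized to DMSO and tomatine controls. Cancer cells in serum-free medium, with four compound doses (0.36-46 umol/L), sat 2 hr at RT then 16 hr at 37 C on a 48 hr fibroblast/mesothelial/ECM culture.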

outcome, inactive:
CCc1ccc(S(=O)(=O)c2nnn3c2nc(N2CCN(CC)CC2)c2sccc23)cc1
CN1C(=O)c2ccccc2Sc2ccc(NC(=O)NCc3ccccc3Br)cc21
Cc1ccc(CN(Cc2ccco2)C(=O)c2ccccc2Cl)o1
c1ccc(CNc2ncnc3[nH]ncc23)cc1
Cc1cccc(N2CCN(C(=O)CCNS(=O)(=O)c3ccc4c(c3)CCN4C(=O)C3CC3)CC2C)c1 (stereo unspecified)
COc1ccc(N2CCN(C(=O)c3c(C)nn(-c4ccc(F)cc4)c3-n3cccc3)CC2)cc1
CSc1ccc(CCNC(=O)c2ccc3c(c2)nc2n3CCC(C)C2)cc1 (stereo unspecified)
COc1ccc(NC(=O)c2ccc(-c3nc(COc4ccccc4)c(C)o3)cc2)cc1
CCCCSCCCNC(=O)c1cn(CC)c2ccc(S(=O)(=O)N3CCOCC3)cc2c1=O
CCc1ccccc1NC(=O)Cn1nc(-c2cc(C)ccc2C)c2c(c1=O)CCCC2
O=c1c2[nH]c3ccccc3c2nc(SCc2ccccc2F)n1-c1ccc(F)cc1
CC1CCc2nc3ccc(S(=O)(=O)N4CCC(C(=O)NCc5ccccc5Cl)CC4)cc3c(C(=O)O)c2C1 (stereo unspecified)
Cc1cccc(NC(c2cccc(Cl)c2)c2ccc3cccnc3c2O)n1 (stereo unspecified)
Cc1ccc(CNC(=O)c2ccc3oc(=O)n(Cc4ccccc4)c3c2)cc1
CCCCN(CCCNC(=O)c1cc(Nc2ccc(OC)cc2OC)nc2ccccc12)Cc1ccccc1
COc1ccc(-c2cn3nc(N4CCCC(C(=O)Nc5ccccc5F)C4)sc3n2)cc1 (stereo unspecified)
CCCCOC(=O)c1ccc(NC(=O)C2(c3cccs3)CCOCC2)cc1
CC(C)(Oc1ccc(Cl)cc1)C(=O)Nc1ccc(-c2nc3ncccc3o2)cc1

Activity change, negative = inhibition, inactive:
COC(=O)c1c(NC(=O)CCCOc2cccc(C)c2)sc2c1CCC(C)C2 (stereo unspecified) -18.7%
O=C(Cn1ncc2c3ccccc3n(Cc3ccccc3)c2c1=O)NCc1ccccc1 -1.76%
COc1cc(C2C(C(=O)Nc3ccccc3)=C(C)Nc3nc(SCC(=O)c4ccc(C)cc4)nn32)ccc1O (stereo unspecified) -9.19%
CC(C)NS(=O)(=O)c1ccc(OCC(=O)N2CCN(c3cccc(Cl)c3)CC2)cc1 -4.7%
Cc1ccc(Cn2c(C)c(CNCc3ccccc3F)c(C(=O)O)c2C)cc1 -5.63%
CCc1ccccc1N(C)C(=O)c1cc2c(s1)-c1c(C)cccc1OC2 -3.51%
COc1cccc(CN2C(=O)C3(SCC(=O)N3c3ccc(F)cc3)c3ccccc32)c1 (stereo unspecified) 14.1%
COc1ccc(-c2nc3c(c(SCC(=O)Nc4cc(C)cc(C)c4)n2)Cc2c(CO)cnc(C)c2O3)cc1 10.8%
Cc1nc2sc(C)c(C)n2c(=O)c1S(=O)(=O)NCCc1ccc(Cl)cc1 -3.18%
O=C(C1CCCN(S(=O)(=O)c2cccs2)C1)N1CCN(c2ccccc2F)CC1 (stereo unspecified) 18.2%
Cc1ccc(CN(Cc2cccn2-c2nnc(N3CCCC3=O)s2)C(=O)Nc2cc(C)cc(C)c2)cc1 4.38%
CC(=O)c1ccc(NC(=O)c2cn(C)c(=O)c3ccccc23)cc1 8.32%
O=C(NCc1cccc(Cl)c1)c1ccc2c(c1)nc1n2CCOC1 3.07%
CCOC(=O)N1CCc2c(sc3c2c(=O)n(CCc2ccccc2)c(=O)n3Cc2ccc(C)cc2C)C1 5.3%
COc1ccc(-c2nc(CCNC(=O)Cc3ccc(F)cc3)cs2)cc1 -1.14%
Cc1cccc(C(=O)Nc2nc3c(s2)CCCC3)c1 -13.6%
O=C(NC1CC(=O)N(c2ccccc2)C1)c1cccs1 (stereo unspecified) -2.1%
CCc1ccccc1NC(=O)N1CC(CC)Oc2ccc(Cl)cc21 (stereo unspecified) -2.74%
CCOCCc1nn2c(=O)cc(COC(=O)c3ccccc3NC(=O)c3cccs3)nc2s1 3.95%
COC(=O)c1ccc(NC(=O)c2cc3cc(C)ccc3n2C)cc1 3.73%
COc1ccc(NC(=O)CSc2nc3ccccc3n2CC(=O)NCc2ccc(F)cc2)cc1 -5.64%
COc1ccc(-c2c3c(=O)n(C)c(=O)n(C)c3c3n2-c2ccccc2NC3c2ccccc2OC)cc1 (stereo unspecified) -42.2%
COc1ccc(S(=O)(=O)N2CCC(C(=O)Nc3ccc(Oc4ccccc4)cc3)CC2)cc1OC -8.57%
CCOc1ccc(NC(=O)CSc2nnc3c(C)cc4ccccc4n23)cc1 -3%
Cc1ccc2c(CC(=O)Nc3ccc(S(=O)(=O)N4CCC(C)CC4)cc3)coc2c1 16.3%
COc1cc(NC(=O)Nc2nnc(N3CCCCC3)s2)cc(OC)c1 -7.3%
CCCn1c2ccccc2c2cnn(CC(=O)Nc3ccccc3OC)c(=O)c21 -6.96%
COC(=O)c1ccccc1NC(=O)Cn1nc(C)c2nn(-c3ccc(Cl)cc3)c(C)c2c1=O -9.67%
O=C(CSc1nc2c(c(=O)[nH]1)CN(Cc1ccc3c(c1)OCO3)CC2)Nc1cc(F)ccc1F 5.69%
COc1ccc(Cl)cc1NC(=O)C1CCCN(S(=O)(=O)c2ccc3c(c2)CCCC(=O)N3)C1 (stereo unspecified) 3.06%
Cc1ccccc1OCC(=O)Nc1ccc(OCc2cc(=O)n3ccccc3n2)cc1 24.4%
CCOc1ccccc1N(C)C(=O)c1sc2nc3n(c(=O)c2c1C)CCCC3 -4.52%
COc1ccc(NC(=O)CSc2nccn2C2CCCC2)cc1OC -6.37%
Cc1nn(CC(=O)Nc2ccc(C(C)C)cc2)c(=O)c2c(C)n(-c3ccc(Cl)cc3)nc12 -14.2%
COc1ccc(NC(=O)CSc2nc(-c3ccccc3)cc(-c3cc(OC)c(OC)c(OC)c3)c2C#N)c(OC)c1 2.69%
CCOC(=O)c1c(NC(=O)CSc2cn(CCNC(=O)c3ccc(OC)cc3)c3ccccc23)sc2c1CCC2 8.42%
CC(=O)N1CCc2cc(CNS(=O)(=O)c3cccs3)ccc21 -3.68%
COc1ccc(-c2nnc(SCC(=O)Nc3cccc(C)c3)s2)cc1 1.3%
COc1ccccc1N1CCN(S(=O)(=O)CCNC(=O)c2cc(=O)c3ccccc3o2)CC1 -0.358%
Cn1ccc2cc(S(=O)(=O)N3CCN(C(=O)Nc4cccc(F)c4)CC3)ccc21 -3.06%
COc1ccc(NC(=O)C(c2ccc(OC)cc2)N(C)C(=O)Cc2cccs2)cc1 (stereo unspecified) 4.04%
Cc1ccccc1C(=O)Nc1cccc(-c2nc3cccnc3s2)c1 -16.8%
COc1ccc(C(CNC(=O)COc2cc(C)c(Cl)c(C)c2)N2CCCCC2)cc1 (stereo unspecified) -21.9%
